# From paper PMC4336329 (PLoS ONE, 2015)
# Hit rate of the full screen: of about 310,000 compounds, about 2,200 (0.71%) showed an effect of 50% or more. Effects have a minus sign here. This is one part of the list.
# Target: human ether-à-go-go-related gene (hERG) potassium channel (human, UniProt Q12809)
# Assay: primary screen, population patch clamp on CHO cells stably expressing hERG
# human ether-à-go-go-related gene (hERG) potassium channel, sequence (Q12809 whole entry, looked up): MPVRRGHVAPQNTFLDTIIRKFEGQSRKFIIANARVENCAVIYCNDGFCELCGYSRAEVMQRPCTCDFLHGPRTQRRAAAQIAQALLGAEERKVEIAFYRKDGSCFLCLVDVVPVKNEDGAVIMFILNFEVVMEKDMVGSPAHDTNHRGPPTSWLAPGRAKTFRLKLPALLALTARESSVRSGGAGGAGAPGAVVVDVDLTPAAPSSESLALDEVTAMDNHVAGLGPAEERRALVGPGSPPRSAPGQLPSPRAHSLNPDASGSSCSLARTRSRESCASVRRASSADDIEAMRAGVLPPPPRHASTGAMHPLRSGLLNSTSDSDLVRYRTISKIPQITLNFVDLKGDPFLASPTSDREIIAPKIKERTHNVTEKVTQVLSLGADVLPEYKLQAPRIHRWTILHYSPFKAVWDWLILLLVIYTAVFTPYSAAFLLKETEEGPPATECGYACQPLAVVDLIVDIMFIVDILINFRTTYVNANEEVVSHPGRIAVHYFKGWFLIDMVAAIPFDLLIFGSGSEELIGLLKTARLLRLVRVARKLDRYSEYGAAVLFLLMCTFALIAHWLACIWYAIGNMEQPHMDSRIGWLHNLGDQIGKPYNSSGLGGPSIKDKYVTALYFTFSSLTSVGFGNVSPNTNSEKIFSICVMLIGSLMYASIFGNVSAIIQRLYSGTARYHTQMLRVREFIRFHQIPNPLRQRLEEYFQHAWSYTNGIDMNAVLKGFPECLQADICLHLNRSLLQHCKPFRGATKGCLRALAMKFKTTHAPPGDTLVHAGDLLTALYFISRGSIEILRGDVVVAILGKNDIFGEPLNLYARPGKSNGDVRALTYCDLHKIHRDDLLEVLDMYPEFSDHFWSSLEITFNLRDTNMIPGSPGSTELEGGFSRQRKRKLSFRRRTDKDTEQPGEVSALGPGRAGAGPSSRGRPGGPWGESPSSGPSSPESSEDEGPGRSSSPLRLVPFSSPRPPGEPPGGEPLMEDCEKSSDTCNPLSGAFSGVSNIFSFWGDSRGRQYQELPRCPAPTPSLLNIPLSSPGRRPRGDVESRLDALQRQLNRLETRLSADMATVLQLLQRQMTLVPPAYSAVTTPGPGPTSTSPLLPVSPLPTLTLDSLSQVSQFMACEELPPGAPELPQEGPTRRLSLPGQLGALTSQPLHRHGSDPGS
row,Compound,"hERG current change (%, negative = inhibition) at 1uM"
1,O=C(CCC(=O)N1CCc2ccccc2C1)N1CCN(S(=O)(=O)c2ccccc2)CC1,-6.23%
2,COCCCNC(=S)Nc1c(C)cc(C)cc1C,16.4%
3,Cc1ccc(S(=O)(=O)N2CCN(c3nn(C)c(=O)n(C)c3=O)CC2)cc1C,7.8%
4,COc1cc(NC(=O)COc2cc(O)c3c(c2)OC(C)(C)CC3=O)cc(OC)c1OC,-4.79%
5,CCCNC(=O)c1onc(CSc2ccccn2)c1C(=O)NCCC,14.2%
6,CN(Cc1ccccc1)C(=O)CN(C1CCCCC1)S(C)(=O)=O,4.32%
7,CC1(C)Cn2c(nnc2-c2cccc(O)c2)S1,-0.25%
8,CCN(CC)S(=O)(=O)c1ccc(N2CCOCC2)c(NC(=O)c2cc3ccccc3oc2=O)c1,16.4%
9,Cl.NCc1ccc2[nH]c(=O)[nH]c2c1,11.2%
10,Cc1cccc(C)c1NC(=S)N1CCC(N(C)CC2CCCO2)CC1 (centres unmarked),-6.2%
11,Cc1ccc(-n2c(SCC(=O)NCc3ccco3)nnc2-c2cccnc2)cc1,-16.5%
12,O=C(CCS(=O)(=O)c1ccc(Cl)cc1)NCCC1=CCCCC1,13.7%
13,COc1ccc(NC(=O)CN(C)C(=O)Cc2n[nH]c(=O)c3ccccc23)cc1,16.2%
14,Cc1cc(C)cc(N=C2NC(=O)CS2)c1,2.9%
15,O=C1CCCc2nn(-c3ccccc3)c(-c3ccncc3)c21,13%
16,CN1C(=O)CC(N2CCN(C(=O)c3ccccc3)CC2)C1=O (centres unmarked),-8.21%
17,Cc1nc(NC(=O)C2CCCCC2C(=O)O)sc1C (centres unmarked),5.96%
18,CN(C)c1nc(N(C)C)n(Cc2c(Cl)cccc2Cl)n1,17.6%
19,CC(=O)Nc1ccc(C(=O)NCC2CCCCC2)cc1,8.14%
20,Cc1cccc(-c2noc(CN(C(=O)CCc3ccccc3)C(C)C)n2)c1,9.65%
21,O=C1N/C(=N\S(=O)(=O)Cc2ccccc2)S/C1=C/c1cc([N+](=O)[O-])ccc1O,12.5%
22,Cc1ccc(C)c(C(=O)CN2C(=O)NC3(CCCCCCC3)C2=O)c1,4.49%
23,CCOc1ccccc1NC(=O)c1cnc2n(c1=O)CCS2,8.49%

row,Compound,"hERG current change (%, negative = inhibition) at 1uM"
1,O=C(NC1CCCc2ccccc21)c1ccc(F)cc1F (centres unmarked),-1.31%
2,COCc1ccc(C(=O)NC(C)c2cnn(-c3ccccc3C)c2C)o1 (centres unmarked),6.94%
3,Cc1ccc(S(=O)(=O)N(Cc2cc3cc4c(cc3[nH]c2=O)OCCO4)CC2CCCO2)cc1 (centres unmarked),13.2%
4,Cc1cc(C)cc(N(C(=O)c2csnn2)C(C(=O)NC(C)(C)C)c2cccs2)c1 (centres unmarked),6.52%
5,Cc1cc(=O)[nH]c(N=N/C(=N/Nc2ccc(O)cc2)c2ccccc2)n1,4.07%
6,O=C(NCCOc1ccccc1)c1ncn[nH]1,12%
7,COc1ccc(S(=O)(=O)N2CCC(Nc3ccccc3Cl)CC2)cc1,28.1%
8,COC(=O)c1ccccc1NC(=O)NC1CCN(Cc2ccccc2)CC1,-0.747%
9,CC(Oc1ccccc1)C(=O)OCC(=O)NC(=O)NCc1ccco1 (centres unmarked),12.6%
10,O=c1[nH]c(CSc2nc3ccccc3s2)nc2cc(Cl)ccc12,9.81%
11,C=CCOC(=O)Nc1ccc(Cl)cc1NC(=O)OCC=C,0.411%
12,O=C(Nc1cccc(-c2nnn(CC(=O)N3CCc4ccccc4C3)n2)c1)C1CCC1,17.8%
13,Cc1cc(N2CCN(Cc3cn(C)nc3-c3ccccc3F)CC2)cc(C)n1,-3.99%
14,CC1C(C#N)=C(N)OC2=C1C(=O)CCC2 (centres unmarked),1.67%
15,CCC(=O)Oc1ccc2c(=O)c(-c3ccc4ccccc4n3)c(CC)oc2c1C,19.8%
16,COc1ccccc1OCCn1cc(/C=N/NC(=O)c2ccncc2)c2ccccc21,16.5%
17,Cc1ccnn1CCC(=O)O,12.4%
18,CCSc1nc2ccc(N3C(=O)C4C5C=CC(C5)C4C3=O)cc2s1 (centres unmarked),8.84%
19,O=C(NCCN1C(=O)S/C(=C\c2ccccc2)C1=O)C1CCN(S(=O)(=O)c2cccs2)CC1,-6.33%
20,CC(Oc1ccc(Br)cc1)C(=O)NNC(=O)CCN1CCN(c2ccccc2)CC1 (centres unmarked),-1.74%
21,O=C(OCc1ccccc1)C1=[N+]([O-])OC(C(=O)OCc2ccccc2)C1c1c[nH]c2ccccc12 (centres unmarked),8.17%
22,CC(=O)Nc1ccc(NC(=O)COC(=O)c2cc([N+](=O)[O-])ccc2N2CCOCC2)cc1,-3.31%
23,Cc1ccc(NC(=O)c2ccc(C(C)(C)C)cc2)cc1-n1cnnn1,8.91%

row,Compound,"hERG current change (%, negative = inhibition) at 1uM"
1,O=C(Nc1ccccn1)c1cc2ccccc2o1,9.79%
2,CCN(CC)c1ccc(Nc2nc(Cl)ncc2Br)cc1,7.87%
3,CCC(=O)Nc1ccc2nc(C)n(CC(=O)Nc3ccccc3)c(=O)c2c1,10.1%
4,O=c1[nH]cnc2nc3n(c12)CCCCC3,6.06%
5,COC(=O)c1oc2ccccc2c1-n1cccc1,0.781%
6,Cc1ccc(CNC(=O)c2sccc2-n2cccc2)cc1,3.94%
7,Cc1noc(C)c1S(=O)(=O)N1CCCC(C(=O)Nc2nccs2)C1 (centres unmarked),8.45%
8,Cc1ccc(-n2nnnc2-c2ccccc2Br)cc1,1.12%
9,CC1CCCCC1NC(=O)COC(=O)c1ccc2c(c1Cl)C(=O)c1ccccc1C2=O (centres unmarked),6.56%
10,CN(C)c1nc(SCCOC(=O)Nc2ccccc2)nc(N(C)C)n1,9.47%
11,Cc1cc(-c2nc3ccccc3c(=O)o2)ccc1[N+](=O)[O-],13.5%
12,Cc1ccccc1Nc1nc(N)nc(CSCC(=O)Nc2cccc(Br)c2)n1,11.8%
13,O=C(CCc1nnc2ccc(N3CCC4(CC3)OCCO4)nn12)NCc1ccc(F)cc1,3.87%
14,Cc1csc(NC(=O)CSc2nc(C(C)C)nc3c2c(=O)n(C)c(=O)n3C)n1,5.02%
15,O=C(COc1cccnc1[N+](=O)[O-])NCCc1ccc(F)cc1,4.74%
16,CCOc1ccc2c(c1)OC1(CCC(C)C1)CC2=O (centres unmarked),10.6%
17,CCOC(=O)c1cc2c(ccn2C)n1Cc1ccc(C#N)cc1,4.71%
18,COC(=O)CN(c1ccc(OC)cc1OC)S(=O)(=O)c1ccccc1[N+](=O)[O-],4.14%
19,CC(=O)c1c(N2CCN(c3ccccn3)CC2)nc(=S)n(-c2ccccc2)c1C,-5.96%
20,O=C(Cn1cnc2sc3c(c2c1=O)CCCC3)NCC(=O)Nc1ccccc1F,13.1%
21,COC(=O)c1sc(-c2ccccc2)cc1NC(=O)c1cc(OC)cc(OC)c1,18.5%
22,Cc1ccc(S(=O)(=O)N2CCCCC2CCNC(=O)C(=O)NC2CCCC2)cc1 (centres unmarked),-2.42%
23,O=C(CCn1c(=S)[nH]c2ccccc2c1=O)N1CCCCC1,14.1%

row,Compound,"hERG current change (%, negative = inhibition) at 1uM"
1,O=C(Cc1ncc(C(F)(F)F)cc1Cl)N1CCN(c2ccccn2)CC1,-1.62%
2,O=C1C2C(C(=O)N1CCc1ccccc1)C1C=CC2C12CC2 (centres unmarked),12.7%
3,COc1cc(/C=N/NC(=O)C(Cc2c[nH]c3ccccc23)NC(=O)OCC(C)C)cc([N+](=O)[O-])c1OCc1ccccc1 (centres unmarked),8.72%
4,Cc1ccnc(NC(=O)CNC(=O)c2sc3ccccc3c2Cl)c1,10.1%
5,O=c1oc2cc(OCc3c(F)cccc3Cl)ccc2cc1-c1ccccn1,5%
6,COc1ccc(NC(=S)NC2CC3CCCC(C2)N3C2CC2)cc1 (centres unmarked),-12.2%
7,O=C(CCNC(=O)N1CC(=O)Nc2ccccc21)NCc1cccc(Cl)c1,13.8%
8,Cc1nc(-c2ccccc2)sc1C(=O)O,7.52%
9,Cc1cc(Cl)ccc1C(=O)C1CCCN(C(=O)c2snnc2C)C1 (centres unmarked),-22.7%
10,CC(c1ccccc1)n1c(-c2ccc(Cl)cc2)n[nH]c1=S (centres unmarked),10.4%
11,CCOC(=O)c1cc(OC(=O)c2ccccc2)n(-c2ccccc2)n1,-7.31%
12,CCOC(=O)C(C)Sc1ncnc2c1c(-c1ccccc1)cn2-c1ccc(OC)cc1 (centres unmarked),7.46%
13,CCOC(=O)Nc1ccc2c(c1)N(C(=O)OCCN(C)C)c1ccccc1CC2,-16.6%
14,CCOc1cc(/C=N/n2cnnc2)c(Br)cc1O,-6.9%
15,COc1ccc(/C=C2\Sc3ccc(C(=O)N4CCc5ccccc5C4)cc3N(C)C2=O)cc1,5.21%
16,CCOC(=O)CC(NC(=O)C1c2ccccc2Oc2ccccc21)c1ccccc1Cl (centres unmarked),25.3%
17,O=C(NCc1nnnn1-c1cccc(F)c1)c1ccc(S(=O)(=O)N2CCOCC2)cc1,10.1%
18,CCOC(=O)C1=C(N)Oc2cc(O)ccc2C1c1ccc(F)cc1F (centres unmarked),13%
19,Cc1nc(C)c(C(=O)NNS(=O)(=O)c2ccc3ccccc3c2)s1,9.1%
20,O=C(Nc1ccc(O)cc1)/C(=C\C=C\c1ccccc1)NC(=O)c1ccccc1,5.49%
